Assay results published in PubChem BioAssay AID624417 (National Center for Advancing Translational Sciences (NCATS), 2012).
The whole screen tested about 410,000 compounds, of which about 6,400 (1.6%) were called active. This list was built around the results that the source calls inconclusive (neither active nor inactive); the mix of calls is not that of the screen. Calls come from the whole dose curve; as a rule, active = well fitted inhibition curve with a large enough effect; inconclusive = small, poorly fitted or top-dose-only effect; inactive = no such curve, though single readings can be large or run the other way. No potency is given beside an inconclusive call; the fits are too rough.

Target: Glucagon-like peptide 1 receptor (Homo sapiens) (UniProt P43220)
UniProt P43220, sequence (P43220 whole entry, looked up): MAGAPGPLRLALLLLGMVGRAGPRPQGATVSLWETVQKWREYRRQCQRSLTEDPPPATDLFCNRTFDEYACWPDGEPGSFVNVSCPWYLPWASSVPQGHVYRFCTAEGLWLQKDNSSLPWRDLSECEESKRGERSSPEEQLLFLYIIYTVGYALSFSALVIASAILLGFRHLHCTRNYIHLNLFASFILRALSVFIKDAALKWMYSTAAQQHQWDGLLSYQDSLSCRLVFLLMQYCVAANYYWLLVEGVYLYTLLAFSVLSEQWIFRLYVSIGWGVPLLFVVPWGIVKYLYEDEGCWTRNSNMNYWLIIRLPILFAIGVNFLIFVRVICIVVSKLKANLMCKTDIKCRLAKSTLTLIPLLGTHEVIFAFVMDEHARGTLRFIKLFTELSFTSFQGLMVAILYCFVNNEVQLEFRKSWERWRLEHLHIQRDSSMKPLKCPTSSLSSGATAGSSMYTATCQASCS
Test: qHTS of GLP-1 Receptor Inverse Agonists (Inhibition Mode); note: nearly all actives have a fitted effect of over 55% in size
Settings: HEK293 GLP-1R CRE-luciferase, luminescence, 24 h, GLP-1R form is constitutively active; series mostly up to 38.3 µM
Outline: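 qHTS in 1536-well format: reporter HEK293 cells expressing constitutive GLP-1R activity in DMEM + 10% Nu serum, 24 hr with compounds at 37 deg C, luminescence read after 12 min with detection reagent.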
Potency is the fitted concentration of half-maximal effect; tags give direction and shape of the fitted curve.

| SMILES | Potency |
| --- | --- |
| O=C(CN1CCN(S(=O)(=O)c2ccccc2)CC1)Nc1ccc2c(c1)OCO2 | inconclusive [inhibitor, partial curve, poor fit] |
| Cc1ccc(C)c(SCC(=O)Nc2cccc(S(=O)(=O)NC3=NCCCCC3)c2)c1 | inconclusive [inhibitor, single point] |
| Cc1ccc(NC(=S)NC2CC3CCCC(C2)N3Cc2cccs2)cc1 (stereo unspecified) | inconclusive [inhibitor, single point] |
| COc1ccccc1NS(=O)(=O)c1cc(NC(=O)C(C)(C)C)ccc1N1CCOCC1 | inactive |
| COc1ccc(Nc2cc(C(=O)NCCCN3CCN(c4ccc(OC)cc4)CC3)c3ccccc3n2)cc1 | inconclusive [inhibitor, partial curve, poor fit] |
| COc1cccc(S(=O)(=O)NCc2ccc(C(=O)N3CCN(c4ccccc4)CC3)cc2)c1 | inconclusive [inhibitor, single point] |
| CCC(C(=O)Nc1cc(Cl)ccc1OC)c1ccccc1 (stereo unspecified) | inconclusive [inhibitor, partial curve, poor fit] |
| Cc1ccc(S(=O)(=O)N(C)C)cc1NC(=S)NC(C)CCC(C)C (stereo unspecified) | inconclusive [inhibitor, single point] |
| C[C@@H]1CN([C@@H](C)CO)C(=O)Cc2cc(NC(=O)Nc3cccc4ccccc34)ccc2O[C@@H]1CN(C)Cc1ccc(C(F)(F)F)cc1 | inconclusive [inhibitor, partial curve, poor fit] |
| CCC1(c2ccccc2)NC(=O)N(CC(=O)Nc2cc(S(=O)(=O)N3CCCCC3)ccc2N(C)C)C1=O (stereo unspecified) | inconclusive [inhibitor, single point] |
| COCC(=O)NCc1nc2cccnc2n1Cc1ccc(F)cc1 | inactive |
| Cc1ccc(S(=O)(=O)c2ccc([N+](=O)[O-])o2)cc1 | inconclusive [inhibitor, partial curve, poor fit] |
| O=C(NCc1ccc(Cl)cc1)C(=O)NCC(c1cccs1)S(=O)(=O)c1cccs1 (stereo unspecified) | inconclusive [inhibitor, partial curve] |
| COc1ccc(CCN(C)C(=S)Nc2ccc(SC(F)F)cc2)cc1OC | inconclusive [inhibitor, partial curve, poor fit] |
| COc1ccccc1OCC(=O)NCCSCc1ccc(Cl)cc1 | inconclusive [inhibitor, single point] |
| CCN(CC)C(=O)CSc1nc(-c2ccco2)cc(C(F)(F)F)c1C#N | inconclusive [inhibitor, full curve, poor fit] |
